Data taken from the supplement of paper PMC11417369.
This is one part of the list.

The sequences below were run on PfHDP1 homeodomain (GST-tagged) (assay: gcPBM binding intensity (ln(normalized median fluorescence intensity)); higher = stronger DNA binding).
Procedure, shortened: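 Binding intensity is defined as the maximum Masliner-normalised natural-log median intensity across replicate spots for either probe orientation. It was measured on an Agilent 4 × 180k array of primer-extended double-stranded 36-bp intergenic genomic probes and negative controls, to which GST-tagged P. falciparum DNA-binding domains made in E. coli were applied for 1 h in 1× PBS with 1% milk, 0.2 mg/ml BSA, 0.5% salmon testes DNA and 0.03% Triton X-100. Detection was by Alexa488 anti-GST antibody and scanning at 488 nm.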

Sequence | gcPBM binding intensity (ln)
ATAAATAAAACAAAATGTACAAATATTCATATATTC [XGTACX_site1307] | 6.27
TTTCATTTCACAGACACACACACACCCTATATTTCC [CACACA_site3906] | 7.09
TTATTTACCTATTATAGTACATATAATTAATATAAT [XGTACX_site5724] | 6.35
ATCTTTCGTACATGTACACACAGAAAAAAAAAAAAA [CACACA_site2502] | 6.38
GTGTAATCATATAAGGGTACAAAAAATGTCTAACAA [XGTACX_site8122] | 6.9
GTTCCCATAAATAAATGTACATATTATATATATATA [XGTACX_site3242] | 8.73
ATTCATATCTACTTCACACACATTTGATCATTCAAA [CACACA_site7207] | 6.94
AAAATCTATATTAACACACACACAAAAAAAAAAAAA [CACACA_site6738] | 6.37
ATAGTATTTTTTATTACACACAAATAAAAAGAAAAA [CACACA_site2087] | 6.55
ATGAAACAGTAACATTGTACTTTTACAAAAAAATAA [XGTACX_site806] | 6.25
TTTAAAAAAAATATGTGTACTTAATATTTTCATATA [XGTACX_site7421] | 6.08
TACATATAAATAATAACACACACCTAGGTACATGGA [CACACA_site838] | 6.57
AGAAAGGAGGAAATAAAAGGACTTCTTTTTTTATAT [CACACA_negctrl_site810] | 6.05
CATACACAGAAACACACACACATATATATATATATA [CACACA_site4519] | 9.34
TAATTAATATATTTTTGTACTTATATATTTGCGTAT [XGTACX_site340] | 6.4
AATCCACAAAGACACACACACACATATATATATATA [CACACA_site1269] | 9.47
ATTTTTGATTTTAAAAGTACATAAGTATACTATTTA [XGTACX_site7162] | 5.98
TTTTGTAATTTTGTATGTACACATTAAAGTAATATG [XGTACX_site2401] | 6.39
TTATAATATATATGTGGTACTTATTTATTTATTTAT [XGTACX_site7572] | 6.37
AAAATTCTTCGGGGGAGTACAAGGATATTCTACGTT [XGTACX_site3974] | 7.4
AAAAATAAAATGATGGTGCACATAAAGTATGGTTAC | 9.66
ATTGAAAATTATTTACCTTCTTTGAAAGAACAAATG [CACACA_negctrl_site1736] | 6.03
ATAAATAAATTTATACGTACACATAATATATATATA [XGTACX_site4634] | 8.63

Sequence | gcPBM binding intensity (ln)
TAAAAAAAAAAAAAAAGTACCCATACTATATTACAT [XGTACX_site946] | 6.22
TTACTAAACTTATATGTACACACATATAACATTAAT [CACACA_site8710] | 7.03
GTAAAAATTTCATATTCACACACAAAAAAAAAAAAT [CACACA_site8457] | 6.76
AGTAGTCTGGAGAAGAGTACATAGTATCTGATAACC [XGTACX_site2044] | 6.6
AAGAATTTTACAAAATGTACTTATGTTTTGTTTTAC [XGTACX_site5632] | 6.14
AAAAAAAAAATACAGGTGCAATAAGAAAAAAATGGT | 9.85
TATATTAACAAAATGGTGCAATAATTTCTATATTAT [GTGCAC_site9857] | 10.5
CCAAATTTATAAAGAACACACACATATATATATATA [CACACA_site7900] | 9.23
TATACATATTTAATATGTACATAATAATACTTATTC [XGTACX_site6939] | 6.23
AAGCATGTAGAATAATGTACTTGTGATTTTAATATA [XGTACX_site8565] | 6.25
TTATTAAATGAAAAATGTACATATAAATGATTATAT [XGTACX_site2788] | 6.41
GAAATGTGTAGACACGCACACACAAAAAAATATATA [CACACA_site2912] | 6.64
AAAAATAAAAAAATAATAAAATAAAAAATAAAAAAT [TGCATGCA_negctrl_site89] | 6.46
TAAAAAAACATATATTGTACGGAGATAATAATTTTT [XGTACX_site2946] | 6.39
ATGTATAAACATATATGTACTTAAATAAAATGTTAA [XGTACX_site4044] | 6.53
CACCAATTCATATGCACACACATCTGCATATTATAT [CACACA_site1773] | 10.3
ATTAAAAGAACAATGTAAAAAAAGCAAATTAAAGAT [TGCATGCA_negctrl_site360] | 7.23
TATACTGTCAATTCTACACACCATAGGGGGAGCATA [CACACA_site1875] | 7.48
TTCTAATATATGCATACACACAAATGTGAATATACA [CACACA_site2142] | 7.22
TTTTTTATTACTTTGTGTACTTACACAGAACCTTAT [XGTACX_site6038] | 6.7
AAAAATGCAATTTAATGTACACATAAGATGTTATTT [XGTACX_site6853] | 7.68
AAAAAAAAAAAAAACACACACACACCCAAATATATA [CACACA_site1169] | 6.74
ATATATTTATTTATATGTACATAATATTTTTCTCAG [XGTACX_site800] | 6.57

Sequence | gcPBM binding intensity (ln)
ATAAAAATATAAACATGTACATAAAAATCTATATAT [XGTACX_site405] | 6.72
TTGCTTATATTTCTAAAATGTAAAAGACACAAAGGT [XGTACX_negctrl_site225] | 6.73
AGATACTTTTTTAAAAGTACAAAAACTTTCGATATA [XGTACX_site959] | 6.12
ATATTTTTTGTATGTTGTACATAAAATATACATTTT [XGTACX_site6815] | 6.44
TCTAAAATAGTCCAGAGTACAAGAAACCATAATATA [XGTACX_site5237] | 6.17
CATACATACATACATACACACATACATATATATATA [CACACA_site8388] | 8.96
AATTCTTTTTTCAACACACACACACCCGAAAATATA [CACACA_site3111] | 7.53
ATATAGGTAATATTTTGTACATATTTTTGGGGTAGT [XGTACX_site5634] | 7.35
GATAATTTTTGCATATGTACTTAAAAATTAAAAATT [XGTACX_site7037] | 7.15
AAAAAAAAAAAAGGTACTACACACTATTATCAATAG [XGTACX_site161] | 6.26
ACATTTATTTTGAATGGTACACTATTATTATGAAAT [XGTACX_site4384] | 6.14
GACCTACAAAAAGGCACACATATACTCATACATACA [CACACA_site5232] | 6.71
GTGTAATGCTTATCGGTGCATATATATATATATATA | 10.4
AAAAAAGAAACAATCGCATGCAATGTTAATGTACAT [TGCATGCA_site395] | 6.77
AGGTGTCATATATGCACACAAAAGTAACACGCACCT [CACACA_site472] | 9.78
TACGCAAAATAAAATCAAAATATAAGGAAAAAAAAA [TGCATGCA_negctrl_site578] | 5.96
TTTTTTAAACGTTTAAATAATTAAATATAAATAAAT [CACACA_negctrl_site1567] | 6.22
TGAACAACTATTACTGCACACATTCTTACACTATAT [CACACA_site4533] | 8.36
AGGATTATATATTAATGTACCCGCGTTAATTTTTTT [XGTACX_site2878] | 6.2
AAATAGAGAAATACAAGTACATACTAAACCTATCTA [XGTACX_site1334] | 6
TCTAATAAAATAAATACATGCATACATACATACATA [TGCATGCA_site895] | 6.39
TATCTCTACAAAATTTTATTCATTATTCATGTTATA [XGTACX_negctrl_site452] | 6.7
GTACAATAAGATGTAGCATGCCGTACCTTCACTACG [TGCATGCA_site235] | 6.52

Sequence | gcPBM binding intensity (ln)
ACAAAGAAATATAATACACACAAGAATATATTGGAT [CACACA_site3901] | 6.81
TAATATTTATCAAGTCGTACATAAAATGTATAATAA [XGTACX_site1103] | 6.13
ATACTGTATGAAAGCACACATACTTATTACTAACAT [CACACA_site4164] | 6.6
CAAATAACAAAATAATGTACATTTATACTTTTTTTT [XGTACX_site943] | 6.32
TATACATATTTGTATTGTACATAAACTAAATCTTCA [XGTACX_site610] | 5.98
TTCTATGAATTCATAGTGCAAATGAGTTATTTTTTC [GTGCAC_site9709] | 8.72
TTATTATTGTTATGTTGTACTTTTACAAACTTTTTG [XGTACX_site8797] | 6.61
AAGAAAATAGGGTTCATAGGATTATACTTTTGGAAT [TGCATGCA_negctrl_site80] | 6.1
TAATAAAAGATATATACACACAAATAAATAAATAAA [CACACA_site7818] | 6.79
AAATATAAAAAAAATATATAATTTTTACATCGAATT [CACACA_negctrl_site544] | 6.11
ATAATATAAACATATTGTACACATATATTGCTATTT [XGTACX_site2799] | 6.93
AAAAAAAAATATATATATATATATATAAATAAATTT [CACACA_negctrl_site519] | 6.66
ACATCAAGCAGACACACACACACACCCACCCACCGA [CACACA_site371] | 6.5
CTTTTTTAAATTATTGCACACAAAAATGAAAGGAAA [CACACA_site8412] | 10.1
ATTTATTTATATAGAAGTACATATTTATTTATATAT [XGTACX_site6283] | 6.14
TAGAAATATAATTAATGTACATATGATATTATATAT [XGTACX_site923] | 6.42
TATTTTATCTAAGGATGTACATTATTAAGAAAATGT [XGTACX_site6123] | 6.09
ATATATTTATTAAGGTGTACAAAAATTATGTTGCAT [XGTACX_site7546] | 6.81
ATATAATGTGTAGGCCGTATTTACGTTTGGCAATCA [CACACA_negctrl_site1130] | 6.37
TATACAATATAAAATACACACGCACCCAAAAAAAAA [CACACA_site9174] | 7.15
